Source: the supplement of paper PMC8728848
The list shows a part of the results.

Columns and labels:
Assay in all cases: glycan array binding signal (z-score within array); higher = stronger binding
Details in all cases: glycan notation: IUPAC condensed, linker removed
[1] = molecular target: Fuc(a1-2)Gal(b1-4)[Fuc(a1-3)]GlcNAc
In short: (§1)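 The Consortium for Functional Glycomics database supplied 3228 glycan arrays, of which those lacking an available protein sequence were dropped. The binding signal, a within-array Z-score, was averaged across arrays of the same protein sequence and across linkers. Negative scores can be read as non-binding.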

[2] = molecular target: Fuc(a1-2)Gal(b1-4)[Fuc(a1-3)]GlcNAc(b1-2)Man(a1-3)[Fuc(a1-2)Gal(b1-4)[Fuc(a1-3)]GlcNAc(b1-2)Man(a1-6)]Man(b1-4)GlcNAc(b1-4)GlcNAc
In short: as §1

[3] = molecular target: Fuc(a1-2)Gal(b1-4)[Fuc(a1-3)]GlcNAc(b1-2)[Fuc(a1-2)Gal(b1-4)[Fuc(a1-3)]GlcNAc(b1-4)]Man(a1-3)[Fuc(a1-2)Gal(b1-4)[Fuc(a1-3)]GlcNAc(b1-2)Man(a1-6)]Man(b1-4)GlcNAc(b1-4)GlcNAc
In short: as §1

[4] = molecular target: Fuc(a1-2)Gal(b1-4)[Fuc(a1-3)]GlcNAc(b1-3)Gal(b1-4)[Fuc(a1-3)]GlcNAc
In short: as §1

[5] = molecular target: Fuc(a1-2)Gal(b1-4)[Fuc(a1-3)]GlcNAc(b1-3)Gal(b1-4)[Fuc(a1-3)]GlcNAc(b1-3)Gal(b1-4)[Fuc(a1-3)]GlcNAc
In short: as §1

[6] = molecular target: Fuc(a1-2)Gal(b1-4)[Fuc(a1-3)]GlcNAc(b1-3)GalNAc
In short: as §1

[7] = molecular target: Fuc(a1-2)Gal6S(b1-4)Glc
In short: as §1

[8] = molecular target: Fuc(a1-2)Gal6S(b1-4)Glc6S
In short: as §1

[9] = molecular target: Fuc(a1-2)Gal6S(b1-4)GlcNAc
In short: as §1

[10] = molecular target: Fuc(a1-2)[Gal(a1-3)]Gal
In short: as §1

[11] = molecular target: Fuc(a1-2)[Gal(a1-3)]Gal(b1-3)GalNAc
In short: as §1

[12] = molecular target: Fuc(a1-2)[Gal(a1-3)]Gal(b1-3)GlcNAc
In short: as §1

[13] = molecular target: Fuc(a1-2)[Gal(a1-3)]Gal(b1-3)GlcNAc(b1-2)Man(a1-3)[Fuc(a1-2)[Gal(a1-3)]Gal(b1-3)GlcNAc(b1-2)Man(a1-6)]Man(b1-4)GlcNAc(b1-4)GlcNAc
In short: as §1

[14] = molecular target: Fuc(a1-2)[Gal(a1-3)]Gal(b1-3)GlcNAc(b1-2)Man(a1-3)[Fuc(a1-2)[Gal(a1-3)]Gal(b1-3)GlcNAc(b1-2)Man(a1-6)]Man(b1-4)GlcNAc(b1-4)[Fuc(a1-6)]GlcNAc
In short: as §1

[15] = molecular target: Fuc(a1-2)[Gal(a1-3)]Gal(b1-3)GlcNAc(b1-3)GalNAc
In short: as §1

[16] = molecular target: Fuc(a1-2)[Gal(a1-3)]Gal(b1-4)Glc
In short: as §1

[17] = molecular target: Fuc(a1-2)[Gal(a1-3)]Gal(b1-4)GlcNAc
In short: as §1

[18] = molecular target: Fuc(a1-2)[Gal(a1-3)]Gal(b1-4)GlcNAc(b1-2)Man(a1-3)[Fuc(a1-2)[Gal(a1-3)]Gal(b1-4)GlcNAc(b1-2)Man(a1-6)]Man(b1-4)GlcNAc(b1-4)GlcNAc
In short: as §1

[19] = molecular target: Fuc(a1-2)[Gal(a1-3)]Gal(b1-4)GlcNAc(b1-2)Man(a1-3)[Fuc(a1-2)[Gal(a1-3)]Gal(b1-4)GlcNAc(b1-2)Man(a1-6)]Man(b1-4)GlcNAc(b1-4)[Fuc(a1-6)]GlcNAc
In short: as §1

[20] = molecular target: Fuc(a1-2)[Gal(a1-3)]Gal(b1-4)GlcNAc(b1-3)GalNAc
In short: as §1

[21] = molecular target: Fuc(a1-2)[Gal(a1-3)]Gal(b1-4)[Fuc(a1-3)]Glc
In short: as §1

[22] = molecular target: Fuc(a1-2)[Gal(a1-3)]Gal(b1-4)[Fuc(a1-3)]GlcNAc
In short: as §1

[23] = molecular target: Fuc(a1-2)[Gal(a1-3)]Gal(b1-4)[Fuc(a1-3)]GlcNAc(b1-3)GalNAc
In short: as §1

[24] = molecular target: Fuc(a1-2)[Gal(a1-4)]Gal(b1-4)GlcNAc
In short: as §1

[25] = molecular target: Fuc(a1-2)[GalNAc(a1-3)]Gal
In short: as §1

[26] = molecular target: Fuc(a1-2)[GalNAc(a1-3)]Gal(b1-3)GalNAc(a1-3)[Fuc(a1-2)]Gal(b1-4)GlcNAc
In short: as §1

[27] = molecular target: Fuc(a1-2)[GalNAc(a1-3)]Gal(b1-3)GlcNAc
In short: as §1

[28] = molecular target: Fuc(a1-2)[GalNAc(a1-3)]Gal(b1-3)GlcNAc(b1-2)Man(a1-3)[Fuc(a1-2)[GalNAc(a1-3)]Gal(b1-3)GlcNAc(b1-2)Man(a1-6)]Man(b1-4)GlcNAc(b1-4)GlcNAc
In short: as §1

[29] = molecular target: Fuc(a1-2)[GalNAc(a1-3)]Gal(b1-3)GlcNAc(b1-2)Man(a1-3)[Fuc(a1-2)[GalNAc(a1-3)]Gal(b1-3)GlcNAc(b1-2)Man(a1-6)]Man(b1-4)GlcNAc(b1-4)[Fuc(a1-6)]GlcNAc
In short: as §1

[30] = molecular target: Fuc(a1-2)[GalNAc(a1-3)]Gal(b1-3)GlcNAc(b1-3)GalNAc
In short: as §1

[31] = molecular target: Fuc(a1-2)[GalNAc(a1-3)]Gal(b1-4)Glc
In short: as §1

[32] = molecular target: Fuc(a1-2)[GalNAc(a1-3)]Gal(b1-4)GlcNAc
In short: as §1

[33] = molecular target: Fuc(a1-2)[GalNAc(a1-3)]Gal(b1-4)GlcNAc(b1-2)Man(a1-3)[Fuc(a1-2)[GalNAc(a1-3)]Gal(b1-4)GlcNAc(b1-2)Man(a1-6)]Man(b1-4)GlcNAc(b1-4)GlcNAc
In short: as §1

[34] = molecular target: Fuc(a1-2)[GalNAc(a1-3)]Gal(b1-4)GlcNAc(b1-2)Man(a1-3)[Fuc(a1-2)[GalNAc(a1-3)]Gal(b1-4)GlcNAc(b1-2)Man(a1-6)]Man(b1-4)GlcNAc(b1-4)[Fuc(a1-6)]GlcNAc
In short: as §1

[35] = molecular target: Fuc(a1-2)[GalNAc(a1-3)]Gal(b1-4)GlcNAc(b1-3)Gal(b1-4)GlcNAc
In short: as §1

[36] = molecular target: Fuc(a1-2)[GalNAc(a1-3)]Gal(b1-4)GlcNAc(b1-3)Gal(b1-4)GlcNAc(b1-3)Gal(b1-4)GlcNAc
In short: as §1

[37] = molecular target: Fuc(a1-2)[GalNAc(a1-3)]Gal(b1-4)GlcNAc(b1-3)GalNAc
In short: as §1

B1: SCA (Schizophyllum commune) (protein)
chain: MGIDQGVYLITNAGSGTAATLKDGYVKGWERIKGKEQLNQLWFVKSVKTSASDPGYAAFNLATNKVLDLEKGLADRGTPILGWDYHEGDNQHWVIKKQADGKYYKIQSVKTQTFVDLNNGGKDNGTKIQGWVGSWDETNSHQRWVFNQFSATGSRIKSILDTHPKIHGKVIVEWPDRIYFTPDQYIFEAIWAKTGLADIKPRDPLFQSEAYEKVFKGWVVSRAQEIIKVDGFDILVGSLSLVEKSTQKIKVLDVSVRTSDDKSPDLSQIVFFDPESGRTLVDIPEGYEVNSVII
[1]
  glycan array binding signal (z-score): -0.16
[2]
  glycan array binding signal (z-score): -0.163
[3]
  glycan array binding signal (z-score): -0.159
[4]
  glycan array binding signal (z-score): -0.158
[5]
  glycan array binding signal (z-score): -0.161
[6]
  glycan array binding signal (z-score): -0.157
[7]
  glycan array binding signal (z-score): -0.159
[8]
  glycan array binding signal (z-score): -0.158
[9]
  glycan array binding signal (z-score): -0.161
[10]
  glycan array binding signal (z-score): 1.38
[11]
  glycan array binding signal (z-score): -0.157
[12]
  glycan array binding signal (z-score): -0.142
[13]
  glycan array binding signal (z-score): 0.006
[14]
  glycan array binding signal (z-score): -0.152
[15]
  glycan array binding signal (z-score): -0.161
[16]
  glycan array binding signal (z-score): -0.155
[17]
  glycan array binding signal (z-score): 5.61
[18]
  glycan array binding signal (z-score): 7.08
[19]
  glycan array binding signal (z-score): 1.77
[20]
  glycan array binding signal (z-score): 2.52
[21]
  glycan array binding signal (z-score): -0.163
[22]
  glycan array binding signal (z-score): -0.161
[23]
  glycan array binding signal (z-score): -0.161
[24]
  glycan array binding signal (z-score): -0.088
[25]
  glycan array binding signal (z-score): -0.159
[26]
  glycan array binding signal (z-score): -0.161
[27]
  glycan array binding signal (z-score): -0.163
[28]
  glycan array binding signal (z-score): -0.144
[29]
  glycan array binding signal (z-score): -0.16
[30]
  glycan array binding signal (z-score): -0.156
[31]
  glycan array binding signal (z-score): -0.162
[32]
  glycan array binding signal (z-score): -0.161
[33]
  glycan array binding signal (z-score): -0.162
[34]
  glycan array binding signal (z-score): -0.161
[35]
  glycan array binding signal (z-score): -0.161
[36]
  glycan array binding signal (z-score): -0.011
[37]
  glycan array binding signal (z-score): -0.162
